Results published in the supplement of paper PMC9513381.
Recombinant human monoclonal antibodies (heavy:light variable regions). ELISA EC50 on the named antigen, from 10 µg/ml down; IC50 / IC90 against spike pseudovirus on 293T-ACE2 cells, 48 h; lower = stronger. Calls: IC50 above 1,000 ng/ml = non-neutralizing; EC50 above 1,000 ng/ml = non-binder. The source prints 1000 for neutralization that was not reached; it is given as >1000 ng/ml. Only binders of the Wuhan-Hu-1 domain have neutralization values.

B1: B030 (protein)
chain 1: QVQLQQWGAGLLKPSETLSLTCAVSGGSFSGYYWSWIRQPPGKGLEWIGEIIYSGDTNYNPSLKSRITLSLDTAKNQFSLKLTSVTAADTAVYYCARGLSSGYDWGYWGQGTLVTVSS
chain 2: QSALTQPASVSGSPGQSITISCTGTSSDVGGYNYVSWYQQHPGKAPKLMISDVSKRPSGISNRFSGSKSGNTASLTISGLQAEDEADYYCSSYTSNNSYVFGTGTKVTVL
B2: B031 (protein)
chain 1: QVQLQQWGAGLLKPSETLSLTCAVSGGSFSGYYWSWIRQPPGKGLEWIGEIIYSGDTNYNPSLKSRITLSLDTAKNQFSLKLTSVTAADTAVYYCARGLSSGYDWGYWGQGTLVTVSS
chain 2: QSALTQPPSASGTPGQRVTISCSGSSSNIGSNFVYWYQQLPGTAPKLLIYSNNQRPSGVPDRFSGSKSGTSASLAISGLRSEDEADYFCAAWDDSLSGYAVFGGGTQLTVL
B3: B1107 (protein)
chain 1: QVQLVQSGAEVKKPGSSVKVSCKASGGTFSSYAISWVRQAPGQGLEWMGRIIPILGIANYAQKFQGRVTITADKSTTTAYMEMSSLRSEDTAVYYCARGGGYDFRSGYPTPHYYYYYMDVWGKGTTVT
chain 2: DIQMTQSPSSLSASIGDRVTITCQASQDITDYLNWYHHVPGTAPKLLIYDASHLQTGVSSRFSGSGSGTHFNLTISSLQPEDIATYYCQHYDNLSLTFGGGTKVELK
B4: B1108 (protein)
chain 1: EVQLVESGGGLVQPGGSLRLSCSASGFTFNNYWMSWVRQAPGKGLEWIANIKQDGSEKYYVDSVKGRFTISRDNAKNSLYLLMNSLRADDTAVYYCARLERWLWGYFDYWGQGSLVTVSS
chain 2: DIVMTQSPDSLAVSLGERATINCKSSQSVLYSSNNKNYLAWYQQKPGQPPKLLIYWASTRESGVPDRFSGSGSGTDFTLTINSLQAEDVAVYYCQQYYSGPPITFGQGTRLEIK
B5: B1115 (protein)
chain 1: EVQLVESGGGLVQPGGSLRLSCAASGFIVSDSYMTWVRQAPGKGLEWVSLIHSGGSTYYADSVKGRFTITRHYSTNNLYLQMNSLRVEDTAVYYCARDTAASSGYYYNALDVWGQGTTVTV
chain 2: DIQMTQSPSSLSASVGDRVTITCRASQSISNYLNWYQQKPGKAPKLLIFAASSLQSGVPSRFSGSGSGTDFTLTISSLQPEDFATYFCQQSYSTPPTFGQGTKVEIK
B6: B024 (protein)
chain 1: EVQLVESGGGLVKPGGSLRLSCAASGVTFISYSMNWVRQAPGKGLEWVSSISSSSDYIAYADSVKGRFTISRDNAKNSVYLQMTSLRADDTAVYYCARRGDYGECYDYWGQGALVTVSS
chain 2: DIQMTQSPSSLSASVGDRVTITCQASQDINIYLNWYQQKLGKAPKLLINDASNLQPGVPSRFSGSGSGTDFTFTISSLQPEDIATYYCLQYDNLPRTFGQGTKLEIK
B7: B1114 (protein)
chain 1: QVQLVQSGAEVKKPGSSVKVSCKASGDSFTAYAMSWVRQAPGRGLEWLGGIVPVFLTTQSSQKFQGRLTITADMSTSTVYMELNSLRSDDTAVYFCARGPVGSPRNYYSYPLAVWGQGTPVTVSS
chain 2: QSALTQPASVSGSPGQSITISCTGTSSDIGAYNFVSWYQQHPGKAPKLVICDVHNRPSGVSNRFSGSKSGTTASLTISGLQAEDEAYYYCSSYRDISSWVFGGGTKLTVL
B8: B029 (protein)
chain 1: EVQLVESGGGLIQPGGSLRLSCAASGFTVSANYMTWVRQAPGKGLDWVSVIYPGGSTFYADSVKGRFAISRDKSNNTLYLQMNSLRAEDTAVYYCARGPYPPKDSGFWGQGTLVTVSS
chain 2: DIVMTQSPDSLAVSLGERATINCKSSQSVLYSSNNKNYLAWYQQKPGQPPKLLIYWASTRESGVPDRLSGSGSGTDFTLTISSLQAEDVAVYYCQQYYSAPPTFGQGTKVEIK

Target: SARS-CoV-2 Delta (B.1.617.2) spike RBD
Assay: ELISA binding EC50; higher = weaker binding; ELISA of recombinant human antibody on coated antigen, from 10 µg/ml in fourfold dilutions; four-parameter fit.

Binder	ELISA binding EC50 [µg/mL]
B1	> 1
B2	> 1
B3	> 1
B4	> 1
B5	> 1
B6	> 1
B7	> 1
B8	> 1

Target: SARS-CoV-2 Omicron BA.1 spike protein
Assay: as above

Binder	ELISA binding EC50 [µg/mL]
B1	> 1
B2	> 1
B3	> 1
B4	> 1
B5	> 1
B6	> 1
B7	> 1
B8	> 1

Target: SARS-CoV-2 Wuhan-Hu-1 spike receptor-binding domain
Assay: as above

Binder	ELISA binding EC50 [µg/mL]
B1	> 1
B2	> 1
B3	> 1
B4	> 1
B5	> 1
B6	> 1
B7	> 1
B8	> 1
